Test results published in patent US9714221B1 (priority 2016, dated 2017).

Test system: MCF7 cells (breast tumor cells) WT
Test: cells
Settings: Homo sapiens, read-out: proliferation MCF7 (WT) IC50 (nM)

| Structure (SMILES) | IC50 |
| --- | --- |
| Oc1ccc2c(c1)CCCC(c1ccc3c(c1)OCCO3)=C2c1ccc(O[C@H]2CCN(CCCF)C2)cc1 [Example 49, 6-(2,3-dihydro-1,4-benzodioxin-6-yl)-5-[4-[(3S)-1-(3-fluoropropyl)pyrrolidin-3-yl]oxyphenyl]-8,9-dihydro-7H-benzo[7]annulen-2-ol] | 0.4 nM |
| COc1cc(C2=C(c3ccc(O[C@H]4CCN(CCCF)C4)cc3)c3ccc(O)cc3CCC2)ccc1F [Example 50, 6-(4-fluoro-3-methoxy-phenyl)-5-[4-[(3S)-1-(3-fluoropropyl)pyrrolidin-3-yl]oxyphenyl]-8,9-dihydro-7H-benzo[7]annulen-2-ol] | 0.2 nM |
| CCOc1ccc(C2=C(c3ccc(O[C@H]4CCN(CCCF)C4)cc3)c3ccc(O)cc3CCC2)c(F)c1F [Example 52, 6-(4-ethoxy-2,3-difluoro-phenyl)-5-[4-[(3S)-1-(3-fluoropropyl)pyrrolidin-3-yl]oxyphenyl]-8,9-dihydro-7H-benzo[7]annulen-2-ol] | 0.3 nM |
| O=C(O)c1ccc2c(c1)CCCC(c1ccc(Cl)c(F)c1)=C2c1ccc(O[C@H]2CCN(CCCF)C2)cc1 [Example 53, 6-(4-chloro-3-fluoro-phenyl)-5-[4-[(3S)-1-(3-fluoropropyl)pyrrolidin-3-yl]oxyphenyl]-8,9-dihydro-7H-benzo[7]annulene-2-carboxylic acid] | 10 nM |
| Oc1ccc2c(c1)CCCC(c1ccc3ocnc3c1)=C2c1ccc(O[C@H]2CCN(CCCF)C2)cc1 [Example 54, 6-(1,3-benzoxazol-5-yl)-5-[4-[(3S)-1-(3-fluoropropyl)pyrrolidin-3-yl]oxyphenyl]-8,9-dihydro-7H-benzo[7]annulen-2-ol] | 0.1 nM |
| CC(C)c1ccccc1C1=C(c2ccc(O[C@H]3CCN(CCCF)C3)cc2)c2ccc(O)cc2CCC1 [Example 56, 5-[4-[(3S)-1-(3-fluoropropyl)pyrrolidin-3-yl]oxyphenyl]-6-(2-isopropylphenyl)-8,9-dihydro-7H-benzo[7]annulen-2-ol] | 0.5 nM |
| Cc1ccccc1C1=C(c2ccc(O[C@H]3CCN(CCCF)C3)cc2)c2ccc(O)cc2CCC1 [Example 57, 5-[4-[(3S)-1-(3-fluoropropyl)pyrrolidin-3-yl]oxyphenyl]-6-(o-tolyl)-8,9-dihydro-7H-benzo[7]annulen-2-ol] | 0.2 nM |
| Oc1ccc2c(c1)CCCC(c1ccccc1Cl)=C2c1ccc(O[C@H]2CCN(CCCF)C2)cc1 [Example 58, 6-(2-chlorophenyl)-5-[4-[(3S)-1-(3-fluoropropyl)pyrrolidin-3-yl]oxyphenyl]-8,9-dihydro-7H-benzo[7]annulen-2-ol] | 0.3 nM |
| COc1ccc(C2=C(c3ccc(O[C@H]4CCN(CCCF)C4)cc3)c3ccc(O)cc3CCC2)c(C#N)c1 [Example 59, 2-[5-[4-[(3S)-1-(3-fluoropropyl)pyrrolidin-3-yl]oxyphenyl]-2-hydroxy-8,9-dihydro-7H-benzo[7]annulen-6-yl]-5-methoxy-benzonitrile] | 0.1 nM |
| CCOc1cc(F)c(C2=C(c3ccc(O[C@H]4CCN(CCCF)C4)cc3)c3ccc(O)cc3CCC2)cc1F [Example 62, 6-(4-ethoxy-2,5-difluoro-phenyl)-5-[4-[(3S)-1-(3-fluoropropyl)pyrrolidin-3-yl]oxyphenyl]-8,9-dihydro-7H-benzo[7]annulen-2-ol] | 0.4 nM |
| COc1ccc(C2=C(c3ccc(O[C@H]4CCN(CCCF)C4)cc3)c3ccc(O)cc3CCC2)c(OC)c1 [Example 64, 6-(2,4-dimethoxyphenyl)-5-[4-[(3S)-1-(3-fluoropropyl)pyrrolidin-3-yl]oxyphenyl]-8,9-dihydro-7H-benzo[7]annulen-2-ol] | 0.3 nM |
| Oc1ccc2c(c1)CCCC(c1ccc(OC(F)F)c(F)c1)=C2c1ccc(O[C@H]2CCN(CCCF)C2)cc1 [Example 66, 6-[4-(difluoromethoxy)-3-fluoro-phenyl]-5-[4-[(3S)-1-(3-fluoropropyl)pyrrolidin-3-yl]oxyphenyl]-8,9-dihydro-7H-benzo[7]annulen-2-ol] | 0.4 nM |
| Oc1ccc2c(c1)CCCC(c1ccc(C(F)(F)F)nc1)=C2c1ccc(O[C@H]2CCN(CCCF)C2)cc1 [Example 68, 5-[4-[(3S)-1-(3-fluoropropyl)pyrrolidin-3-yl]oxyphenyl]-6-[6-(trifluoromethyl)-3-pyridyl]-8,9-dihydro-7H-benzo[7]annulen-2-ol] | 0.2 nM |
| Oc1ccc2c(c1)CCCC(c1ccc(OC(F)F)cc1)=C2c1ccc(O[C@H]2CCN(CCCF)C2)cc1 [Example 69, 6-[4-(difluoromethoxy)phenyl]-5-[4-[(3S)-1-(3-fluoropropyl)pyrrolidin-3-yl]oxyphenyl]-8,9-dihydro-7H-benzo[7]annulen-2-ol] | 0.3 nM |
| CCOc1ccc(C2=C(c3ccc(O[C@H]4CCN(CCCF)C4)cc3)c3ccc(O)cc3CCC2)c(F)n1 [Example 71, 6-(6-ethoxy-2-fluoro-3-pyridyl)-5-[4-[(3S)-1-(3-fluoropropyl)pyrrolidin-3-yl]oxyphenyl]-8,9-dihydro-7H-benzo[7]annulen-2-ol] | 0.2 nM |
| CC(C)(C)c1ccc(C2=C(c3ccc(O[C@H]4CCN(CCCF)C4)cc3)c3ccc(O)cc3CCC2)cc1 [Example 72, 6-(4-tert-butylphenyl)-5-[4-[(3S)-1-(3-fluoropropyl)pyrrolidin-3-yl]oxyphenyl]-8,9-dihydro-7H-benzo[7]annulen-2-ol] | 0.6 nM |

| Structure (SMILES) | IC50 |
| --- | --- |
| Oc1ccc2c(c1)CCCC(c1ccc3c(c1)CCCN3)=C2c1ccc(O[C@H]2CCN(CCCF)C2)cc1 [Example 73, 5-[4-[(3S)-1-(3-fluoropropyl)pyrrolidin-3-yl]oxyphenyl]-6-(1,2,3,4-tetrahydroquinolin-6-yl)-8,9-dihydro-7H-benzo[7]annulen-2-ol] | 0.9 nM |
| COc1ccc(C2=C(c3ccc(O[C@H]4CCN(CCCF)C4)cc3)c3ccc(O)cc3CCC2)cc1 [Example 76, 5-[4-[(3S)-1-(3-fluoropropyl)pyrrolidin-3-yl]oxyphenyl]-6-(4-methoxyphenyl)-8,9-dihydro-7H-benzo[7]annulen-2-ol] | 0.2 nM |
| Oc1ccc2c(c1F)CCCC(c1ccc(OC(F)F)c(F)c1)=C2c1ccc(O[C@H]2CCN(CCCF)C2)cc1 [Example 79, 6-[4-(difluoromethoxy)-3-fluoro-phenyl]-1-fluoro-5-[4-[(3S)-1-(3-fluoropropyl)pyrrolidin-3-yl]oxyphenyl]-8,9-dihydro-7H-benzo[7]annulen-2-ol] | 6 nM |
| CCOc1ncc(C2=C(c3ccc(O[C@H]4CCN(CCCF)C4)cc3)c3ccc(O)cc3CCC2)cc1Cl [Example 80, 6-(5-chloro-6-ethoxy-3-pyridyl)-5-[4-[(3S)-1-(3-fluoropropyl)pyrrolidin-3-yl]oxyphenyl]-8,9-dihydro-7H-benzo[7]annulen-2-ol] | 0.5 nM |
| CCOc1ccc(C2=C(c3ccc(O[C@H]4CCN(CCCF)C4)cc3)c3ccc(O)c(F)c3CCC2)c(F)n1 [Example 82, 6-(6-ethoxy-2-fluoro-3-pyridyl)-1-fluoro-5-[4-[(3S)-1-(3-fluoropropyl)pyrrolidin-3-yl]oxyphenyl]-8,9-dihydro-7H-benzo[7]annulen-2-ol] | 0.8 nM |
| Oc1ccc2c(c1)CCCC(c1cnc(C(F)(F)F)nc1)=C2c1ccc(O[C@H]2CCN(CCCF)C2)cc1 [Example 84, 5-[4-[(3S)-1-(3-fluoropropyl)pyrrolidin-3-yl]oxyphenyl]-6-[2-(trifluoromethyl)pyrimidin-5-yl]-8,9-dihydro-7H-benzo[7]annulen-2-ol] | 0.7 nM |
| N#Cc1ccc(C2=C(c3ccc(O[C@H]4CCN(CCCF)C4)cc3)c3ccc(O)cc3CCC2)cc1F [Example 85] | 0.8 nM |
| Oc1ccc2c(c1)CCCC(c1cncc(Cl)c1)=C2c1ccc(O[C@H]2CCN(CCCF)C2)cc1 [Example 86, 6-(5-chloro-3-pyridyl)-5-[4-[(3S)-1-(3-fluoropropyl)pyrrolidin-3-yl]oxyphenyl]-8,9-dihydro-7H-benzo[7]annulen-2-ol] | 0.4 nM |
| Oc1ccc2c(c1)CCCC(c1ccc(OC(F)F)nc1)=C2c1ccc(O[C@H]2CCN(CCCF)C2)cc1 [Example 87, 6-[6-(difluoromethoxy)-3-pyridyl]-5-[4-[(3S)-1-(3-fluoropropyl)pyrrolidin-3-yl]oxyphenyl]-8,9-dihydro-7H-benzo[7]annulen-2-ol] | 0.1 nM |
| COc1cc(F)c(C2=C(c3ccc(O[C@H]4CCN(CCCF)C4)cc3)c3ccc(O)cc3CCC2)cc1F [Example 88, 6-(2,5-difluoro-4-methoxy-phenyl)-5-[4-[(3S)-1-(3-fluoropropyl)pyrrolidin-3-yl]oxyphenyl]-8,9-dihydro-7H-benzo[7]annulen-2-ol] | 0.2 nM |
| COc1ccc(C2=C(c3ccc(O[C@H]4CCN(CCCF)C4)cc3)c3ccc(O)cc3CCC2)c(Cl)c1 [Example 89, 6-(2-chloro-4-methoxy-phenyl)-5-[4-[(3S)-1-(3-fluoropropyl)pyrrolidin-3-yl]oxyphenyl]-8,9-dihydro-7H-benzo[7]annulen-2-ol] | 0.2 nM |
| Oc1ccc2c(c1)CCCC(c1cncc(F)c1)=C2c1ccc(O[C@H]2CCN(CCCF)C2)cc1 [Example 90, 5-[4-[(3S)-1-(3-fluoropropyl)pyrrolidin-3-yl]oxyphenyl]-6-(5-fluoro-3-pyridyl)-8,9-dihydro-7H-benzo[7]annulen-2-ol] | 0.4 nM |
| COc1cc(C)c(C2=C(c3ccc(O[C@H]4CCN(CCCF)C4)cc3)c3ccc(O)cc3CCC2)cn1 [Example 91, 5-[4-[(3S)-1-(3-fluoropropyl)pyrrolidin-3-yl]oxyphenyl]-6-(6-methoxy-4-methyl-3-pyridyl)-8,9-dihydro-7H-benzo[7]annulen-2-ol] | 0.1 nM |
| COc1cc(C)c(C2=C(c3ccc(O[C@H]4CCN(CCCF)C4)cc3)c3ccc(O)cc3CCC2)cc1C [Example 92, 5-[4-[(3S)-1-(3-fluoropropyl)pyrrolidin-3-yl]oxyphenyl]-6-(4-methoxy-2,5-dimthyl-phenyl)-8,9-dihydro-7H-benzo[7]annulen-2-ol] | 0.5 nM |
| COc1ccc(C2=C(c3ccc(O[C@H]4CCN(CCCF)C4)cc3)c3ccc(O)cc3CCC2)c(F)c1F [Example 93, 6-(2,3-difluoro-4-methoxy-phenyl)-5-[4-[(3S)-1-(3-fluoropropyl)pyrrolidin-3-yl]oxyphenyl]-8,9-dihydro-7H-benzo[7]annulen-2-ol] | 0.2 nM |
